Drawing on PMC10726135, this text covers binding signal (log2 normalized intensity) for 72 sequences.

Some of the results follow. At the low end of the ranking the order means little. Measured with an extract: partners may take part in the binding.

This assay deals with T1, HNF4alpha8 (COS-7 nuclear extract) (UniProt P41235-5).
T1 sequence: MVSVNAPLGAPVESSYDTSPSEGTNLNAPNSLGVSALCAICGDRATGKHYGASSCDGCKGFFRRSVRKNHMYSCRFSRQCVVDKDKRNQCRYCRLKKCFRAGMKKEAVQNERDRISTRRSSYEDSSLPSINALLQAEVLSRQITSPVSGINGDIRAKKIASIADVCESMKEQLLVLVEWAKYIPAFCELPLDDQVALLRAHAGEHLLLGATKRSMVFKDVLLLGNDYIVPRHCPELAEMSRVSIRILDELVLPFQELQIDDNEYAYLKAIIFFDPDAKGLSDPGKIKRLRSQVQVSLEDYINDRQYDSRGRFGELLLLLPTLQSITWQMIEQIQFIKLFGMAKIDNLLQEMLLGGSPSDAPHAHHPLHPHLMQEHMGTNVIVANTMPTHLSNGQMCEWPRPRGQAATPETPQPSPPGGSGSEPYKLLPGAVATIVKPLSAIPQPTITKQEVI
As to the kind of experiment: protein-binding microarray. To be noted: COS-7 nuclear extract on double-stranded Agilent 4x180k PBM; binding buffer, salt, pH and temperature not given; high values mean tight binding; double strand, one strand shown; sequences stand for … in …GCCTAGGGAGATTAGAGTATCGGTCGA
In the case of CCTGTTTAAAGAATTTTTCCCCTAGTTACA, the binding signal (log2 normalized intensity) worked out at 1.44. The figure for TGGACTTTGCACTAAAAGCCATGAGAAGGT is 5.41. For AACTGGAGTAAAGGTCACTCTTGCTATGCA, the binding signal (log2 normalized intensity) was 3.94. As to CTTTCATCTTTGCGGTGAGCATTTGTTTAG, the binding signal (log2 normalized intensity) was 0.99. As for GCTGCTACTTTAGCTGCCAGAGGTTCTTTC, the binding signal (log2 normalized intensity) was 0.529. The figure for CTGGCTGACCTTTAGCCTGGCCATTTCTCA is 5.07. As for GAAGACCAACAGGTGAAGACATGCTGGTGT, the figure is -0.89; as for AACATCAGGGTGCCAGCAGGTGGTCAGCCT, -1.35. As for GGGTTACAGGTGGACAAACAGGCTGAACAT, the binding signal (log2 normalized intensity) is -1.34. As for ATTTAGTAAGTTCAAGAAGACCTTTGCTCC, the binding signal (log2 normalized intensity) turned out to be 6.78. As for ACCCATCCCTTTGCAATAAAAGATTGCATC, the figure is 0.24; as for ACTCTGACCCAGGAGCCTTCCGGAGGCTCT, -1.27; as for TGAAGTAAATGCAGTTTGTCAAGTGCCCGG, 1.35. For the sequence AAAAAATTCAAAGCAGAGGTGACCCTTGCA, the binding signal (log2 normalized intensity) was 3.93. As for CAAAGTTATCAAGTTGCTTAAATTCTTGTA, the figure is 0.696. The figure for AGGGTATAGGATAAGGAATGAAGCAGAACC is -1.29; for CCACTCTGCCTTCAGCGGTGCATTTTTTTC it is 0.976; for TAATCAGCAAGTTTTATATGAAAACAAAGG it is 1.22. The figure for GTTGCCCAGCTATTAAATGGAATACTTGCC is -0.383; for GTTCGTGCTTCTTGGCCTCTTTGTTTACAC it is 1.46. Consider GTTATCTCTTTTGTGATAGAATGAATGGAA, for which the binding signal (log2 normalized intensity) stood at 1.67. As for GCTTCCAAGAATTTAAGAGAACTAGAGATA, the figure is -1.37.

For the sequence TTTTTCAGATCCCTCTGGTGCTGATGTGTT, the binding signal (log2 normalized intensity) came out at 1.91. The figure for TTTTTTTGTTGTTATCCATTTAAAAAGTAT is 1.35; for ATTGCCCCCTAATGGTATTTATTTTAAACC it is 2.33; for GACAAAGTGTGCACTTTGCACCTGGGCTGG it is 5.52. As for GGATGTCTTTTGTTCTAATGAGGCCACTCC, the binding signal (log2 normalized intensity) was 1.16. As for TATTCTATCAGTAGGTACGTTTGTGATACA, the figure is 1.23; as for AGCTTAAGCATACAGATTACATCTCCAGCT, -1.36. As for ACCGGCCAAACTGGTTTCTCCGCTCGGGGA, the figure is -1.23; as for TTTGCCCTTTTTAATGTTTCATTAAGCAAG, 0.868. On to GATAAGGAATGAGGAGTCAGAGCGTGTTTC, for which the binding signal (log2 normalized intensity) is -1.27. As for CAATTCGCATTTCTGCTTCTTCTCATTCTT, the figure is -0.111. As for CCAAAGGAATCTACATAACAAACATTACTA, the figure is -1.28; as for GCTTAAAACGACTGATTCTCAGGCATCTCT, -1.37; as for CCCAGTTCAAAGGTTAAGACTTTGAATCAG, 4.27. As for CATTCTCTAATCAGGTCGCTGCCTGCCCCT, the figure is 3.39; as for GGGGCAGGTAAGTACCAATATTTGTTAAGT, 0.69; as for TTCCTCCAGCCTGTCGGAATTTGCCCTGTG, 5.15. Take GGCAAGCCGACTTACAGGACAAAAGTAAAT: the binding signal (log2 normalized intensity) was -1.35. In the case of TGCGCTGGCCTTGCTTTTCACAGTCGATCT, the binding signal (log2 normalized intensity) is -1.33.

Regarding ACCTGGACTTGAAGCCAGACTCTGCCATTT, the binding signal (log2 normalized intensity) was -1.32.

Take AAACAACCCAGAGAATGCTAGACAAGGGAA: the binding signal (log2 normalized intensity) is -1.34. The figure for TTCCCCTCCCTTCCACCTTTGCCCTCCAAA is 6.42. As for ATCTGGATTTTCAGGTTCCCCAGTGAGGAT, the figure is 1.46; as for AGGTCAATGAAGCTCTTGCTGGTCAAGCTA, -1.37; as for AAACTGTATTGCTCAATGTCAAACACACTG, -1.26.

Turning to TGCCCCTTCACATATTTTGAAAGAAAGAGA, the binding signal (log2 normalized intensity) came to 1.31. Take CACAACTGGATGGTGTTTGATCTGATGTAC: the binding signal (log2 normalized intensity) was 2.01. As for GGCAGGGGAGAACTTCCTCCTCCTTGGCTC, the figure is -1.24; as for CACAGGTAATAAGCAGTAGACTAAAACCCA, -1.26; as for TCACCAGGATGGGCCATGACCTTTACCCCC, 10.

With CAAATATTGAATGTGTTACACCTGTGTGTA, the binding signal (log2 normalized intensity) stood at 1.63. As for AAAAGTGACCTTTGCTCCAGTTCCCAATAA, the figure is 7.02; as for TTGTCCTTAGACAGTAACCCTTGAGCTCTG, 3.73; as for AATTAATGTACCCCCGGAAACACGTCCTGT, 4.14.

Turning to GATAACCGAGGCTGACAGCAGAGAGTTTTC, the binding signal (log2 normalized intensity) was -1.41.

With CTAGTGTACAGGTGACCTTTGGAATGAACC, the binding signal (log2 normalized intensity) worked out at 7.75. Turning to GTAAATGTACTGTAAACCTAGGTAGTGGAC, the binding signal (log2 normalized intensity) came to 1.55. The figure for ACCAACCTGTCCAAAGGTCATCTGTCACTC is 6.36. Regarding AAAGCAAGTTAAAACAGCAGAGCACGATGA, the binding signal (log2 normalized intensity) was -1.41. As for TTTAACTTCTGGGGGCAAGGTACACCATCT, the figure is 3.99; as for CCTTGCTAATAAATGATTCATTCAGCAAAT, -1.06.

With GTCAGGGAAGACTGATAAGAAAACTAGCAA, the binding signal (log2 normalized intensity) is -1.39.

For CACCATATGTATGTGAAGCTTGCTGATTAC, the binding signal (log2 normalized intensity) amounted to 0.969.

As for AATAAGCACGTTAGAGAAAAAGCCCAAGAA, the binding signal (log2 normalized intensity) is -1.28.

In the case of ACCAGTCAGGCAAACAACAGGCATCAACTC, the binding signal (log2 normalized intensity) is -1.29. GCTGGGGTTTTACCAGGCACGCATGGAATT: the binding signal (log2 normalized intensity) was -1.34.

With AGTTGCTCTGGAGTGCAGGTGGGAGGGGTG, the binding signal (log2 normalized intensity) is -1.39. With GTGGCCGCGAGCACCGCGCGCGCAAAGCGG, the binding signal (log2 normalized intensity) was -1.42.

In the case of CCCCGCCTTGGCCTCCCGGAGAGGCCCCGC, the binding signal (log2 normalized intensity) came out at 2.79.

In the case of CTGCAAACAGTGAGCCCAGTGGAGTAGGCT, the binding signal (log2 normalized intensity) is -1.27.
